The record followed here is paper PMC5892938.

The list shows a part of the results. At the low end of the ranking, values are background and their order means little.

In this assay the target is GST-SBP-SLBP (stem-loop binding protein) (UniProt Q14493). Description: targeted RNA Bind-n-Seq.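 Further: DESeq read counts versus GST-SBP nonspecific binding control pulldown.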 The note with it: RBNS binding buffer: 25 mM Tris pH 7.5, 150 mM KCl, 3 mM MgCl2, 0.1% Tween, 0.5 mg/mL BSA, 1 mM DTT; 27 nM protein, 750 pM RNA pool; temperature not stated; high values mean tight binding.
Regarding “GGUCACGUCUCAAUCAACUCUUUUUCCAGGGAAACCCCUGGUAAUUUCAACAGCUCGCAGUCAAG”, the binding signal (log2 fold change) was found to be 0.0358.
Consider “GGUCACGUCUCAAUCAACUCUACUCCAGGAGUUUCCUCCUGUUAACUCAACAGCUCGCAGUCAAG”, for which the binding signal (log2 fold change) was -0.0843.
Under “GGUCACGUCUCAAUCAACUCUUCGCCCAGGGAAACCCCUGGUUUUCUCAACAGCUCGCAGUCAAG” stands 0.129; under “GGUCACGUCUCAAUCAACUCAUUUCCAGGAGUUUCCUCCUGUAAUCUCAACAGCUCGCAGUCAAG”, 0.0272; under “GGUCACGUCUCAAUCAACUCCCACGAGGGGGGGAAAACCCCUUUACCCUCAUUCUCAACAGCUCGCAGUCAAG”, -0.295.
For “GGUCACGUCUCAAUCAACUCACUAGAGGGGGGGAAAACCCCUUUACCCUCCGCAUCAACAGCUCGCAGUCAAG”, the binding signal (log2 fold change) turned out to be 0.144.
In the case of “GGUCACGUCUCAAUCAACUCAAACGAGGGGGGGAAAACCCCUUUACCCUCAAACUCAACAGCUCGCAGUCAAG” it was 0.0653; in that of “GGUCACGUCUCAAUCAACUCUAUCGAGGGGGGGAAAACCCCUUUACCCUCAACCUCAACAGCUCGCAGUCAAG”, -0.355.
Turning to “GGUCACGUCUCAAUCAACUCUAUAGAGGGGGGGAAAACCCCUUUGCCCUCGAAAUCAACAGCUCGCAGUCAAG”, the binding signal (log2 fold change) stood at 0.0494.
In the case of “GGUCACGUCUCAAUCAACUCCAUAGAGGGGGGGAAAACCCCUUUGCCCUCCAAUUCAACAGCUCGCAGUCAAG” it was -0.196; in that of “GGUCACGUCUCAAUCAACUCAACUCCAGGAGUUUACUCCUGUAUAUUCAACAGCUCGCAGUCAAG”, -0.0282.
Turning to “GGUCACGUCUCAAUCAACUCAUCGCCCAGGGAAAGCCCUGGUUUUCUCAACAGCUCGCAGUCAAG”, the binding signal (log2 fold change) was -0.0339.
With “GGUCACGUCUCAAUCAACUCUAUGUCAGGAGUUUUCUCCUGUUUAUUCAACAGCUCGCAGUCAAG”, the binding signal (log2 fold change) is -0.216.
For “GGUCACGUCUCAAUCAACUCUAUUCCCAGGGAAACCCCUGGUUAACUCAACAGCUCGCAGUCAAG”, the binding signal (log2 fold change) is -0.34.
Regarding “GGUCACGUCUCAAUCAACUCUACGCCAGGAGUUUUCUCCUGUUUUUUCAACAGCUCGCAGUCAAG”, the binding signal (log2 fold change) is -0.0966.
“GGUCACGUCUCAAUCAACUCAUACGAGGGGGGGAAAACCCCUUUACCCUCACUUUCAACAGCUCGCAGUCAAG”: the binding signal (log2 fold change) turned out to be 0.0472.
For the sequence “GGUCACGUCUCAAUCAACUCAAUCCCCAGGGAAAACCCUGGUUUUCUCAACAGCUCGCAGUCAAG”, the binding signal (log2 fold change) was -0.154.
In the case of “GGUCACGUCUCAAUCAACUCUUUUCCAGGAGUUUACUCCUGUAAUCUCAACAGCUCGCAGUCAAG” it was -0.234; in that of “GGUCACGUCUCAAUCAACUCAUUUCCCAGGGAAAGCCCUGGCAAUCUCAACAGCUCGCAGUCAAG”, 0.289; in that of “GGUCACGUCUCAAUCAACUCAUCCCCAGGAGUUUGCUCCUGCAUAUUCAACAGCUCGCAGUCAAG”, 0.0747.
In the case of “GGUCACGUCUCAAUCAACUCAUCGCCAGGAGUUUCCUCCUGUUAUUUCAACAGCUCGCAGUCAAG”, the binding signal (log2 fold change) is 0.122.
As to “GGUCACGUCUCAAUCAACUCUAUCCCCAGGGAAAUCCCUGGCUUUCUCAACAGCUCGCAGUCAAG”, the binding signal (log2 fold change) is -0.204.
On to “GGUCACGUCUCAAUCAACUCAUCUCCCAGGGAAAACCCUGGUAAAUUCAACAGCUCGCAGUCAAG”, for which the binding signal (log2 fold change) was -0.132.
As for “GGUCACGUCUCAAUCAACUCAAGUCCAGGAGUUUCCUCCUGUUUUUUCAACAGCUCGCAGUCAAG”, the binding signal (log2 fold change) is 0.261.
“GGUCACGUCUCAAUCAACUCUUAAGAGGGGGGGAAAACCCCUUUGCCCUCCAUUUCAACAGCUCGCAGUCAAG”: the binding signal (log2 fold change) is -0.266.
On to “GGUCACGUCUCAAUCAACUCUAGUCCCAGGGAAACCCCUGGUUAAUUCAACAGCUCGCAGUCAAG”, for which the binding signal (log2 fold change) turned out to be 0.192.
Under “GGUCACGUCUCAAUCAACUCUCCUGAGGGGGGGAAAACCCCUUUACCCUCUACAUCAACAGCUCGCAGUCAAG” stands -0.363; under “GGUCACGUCUCAAUCAACUCACAAGAGGGGGGGAAAACCCCUUUACCCUCCACUUCAACAGCUCGCAGUCAAG”, 0.191.
In the case of “GGUCACGUCUCAAUCAACUCUUUUCCCAGGGAAAGCCCUGGUAUAUUCAACAGCUCGCAGUCAAG”, the binding signal (log2 fold change) came to 0.123.
With “GGUCACGUCUCAAUCAACUCAUCUCCCAGGGAAACCCCUGGCAAUCUCAACAGCUCGCAGUCAAG”, the binding signal (log2 fold change) is -0.0505.
In the case of “GGUCACGUCUCAAUCAACUCAUUUUCCAGGGAAAUCCCUGGCUUUCUCAACAGCUCGCAGUCAAG”, the binding signal (log2 fold change) is 0.128.
With “GGUCACGUCUCAAUCAACUCUUUUCCCAGGGAAAUCCCUGGUUAAUUCAACAGCUCGCAGUCAAG”, the binding signal (log2 fold change) is 0.00842.
As for “GGUCACGUCUCAAUCAACUCUUUUUCCAGGGAAAACCCUGGCAAUUUCAACAGCUCGCAGUCAAG”, the binding signal (log2 fold change) was -0.0223.
For the sequence “GGUCACGUCUCAAUCAACUCUAGUCCCAGGGAAAGCCCUGGCAAUUUCAACAGCUCGCAGUCAAG”, the binding signal (log2 fold change) is -0.642.
Turning to “GGUCACGUCUCAAUCAACUCAGUCCCCAGGGAAACCCCUGGUUUUUUCAACAGCUCGCAGUCAAG”, the binding signal (log2 fold change) was -0.218.
As for “GGUCACGUCUCAAUCAACUCAAUCUCAGGAGUUUACUCCUGUAUUCUCAACAGCUCGCAGUCAAG”, the binding signal (log2 fold change) was -0.0202.
On to “GGUCACGUCUCAAUCAACUCAAACGAGGGGGGGAAAACCCCUUUACCCUCACUUUCAACAGCUCGCAGUCAAG”, for which the binding signal (log2 fold change) is -0.23.
In the case of “GGUCACGUCUCAAUCAACUCUACUCCAGGAGUUUUCUCCUGUAAUCUCAACAGCUCGCAGUCAAG” it was 0.215.
For “GGUCACGUCUCAAUCAACUCUUCGUCAGGAGUUUUCUCCUGUAUAUUCAACAGCUCGCAGUCAAG”, the binding signal (log2 fold change) was found to be 0.0391.
In the case of “GGUCACGUCUCAAUCAACUCAACUUCCAGGGAAAACCCUGGUUAAUUCAACAGCUCGCAGUCAAG” it was 0.0708; in that of “GGUCACGUCUCAAUCAACUCUUUCUCCAGGGAAAGCCCUGGCUAUGUCAACAGCUCGCAGUCAAG”, 0.2; in that of “GGUCACGUCUCAAUCAACUCUUUAGAGGGGGGGAAAACCCCUUUGCCCUCCACAUCAACAGCUCGCAGUCAAG”, 0.0912.
For the sequence “GGUCACGUCUCAAUCAACUCUUCUCCAGGAGUUUCCUCCUGUUUACUCAACAGCUCGCAGUCAAG”, the binding signal (log2 fold change) came out at 0.00433.
As to “GGUCACGUCUCAAUCAACUCAUCGUCAGGAGUUUUCUCCUGUUAAUUCAACAGCUCGCAGUCAAG”, the binding signal (log2 fold change) came out at 0.0201.
As to “GGUCACGUCUCAAUCAACUCUUCCGAGGGGGGGAAAACCCCUUUACCCUCAUCCUCAACAGCUCGCAGUCAAG”, the binding signal (log2 fold change) is -0.289.
For “GGUCACGUCUCAAUCAACUCAACUCCCAGGGAAAACCCUGGUUUUCUCAACAGCUCGCAGUCAAG”, the binding signal (log2 fold change) turned out to be 0.148.
Under “GGUCACGUCUCAAUCAACUCAAUCCCCAGGGAAACCCCUGGCAAACUCAACAGCUCGCAGUCAAG” stands -0.0511; under “GGUCACGUCUCAAUCAACUCUUUCUCAGGAGUUUUCUCCUGUUAUUUCAACAGCUCGCAGUCAAG”, -0.138.
Turning to “GGUCACGUCUCAAUCAACUCAACUUCCAGGGAAAACCCUGGCAAAUUCAACAGCUCGCAGUCAAG”, the binding signal (log2 fold change) came out at 0.118.
For the sequence “GGUCACGUCUCAAUCAACUCUAUCUCAGGAGUUUCCUCCUGCAUACUCAACAGCUCGCAGUCAAG”, the binding signal (log2 fold change) was -0.0155.
“GGUCACGUCUCAAUCAACUCUUUCUCAGGAGUUUACUCCUGCAUACUCAACAGCUCGCAGUCAAG”: the binding signal (log2 fold change) was -0.071.
For “GGUCACGUCUCAAUCAACUCUUUUUCAGGAGUUUUCUCCUGUAUUCUCAACAGCUCGCAGUCAAG”, the binding signal (log2 fold change) was 0.0346.
For “GGUCACGUCUCAAUCAACUCCCACGAGGGGGGGAAAACCCCUUUACCCUCAUCAUCAACAGCUCGCAGUCAAG”, the binding signal (log2 fold change) was -0.0943.
As to “GGUCACGUCUCAAUCAACUCAUUCUCCAGGGAAAGCCCUGGUUUUUUCAACAGCUCGCAGUCAAG”, the binding signal (log2 fold change) is -0.0442.
On to “GGUCACGUCUCAAUCAACUCUUUCCCCAGGGAAAGCCCUGGUAUUUUCAACAGCUCGCAGUCAAG”, for which the binding signal (log2 fold change) is -0.0971.
As for “GGUCACGUCUCAAUCAACUCUAUCUCCAGGGAAAGCCCUGGCAAUUUCAACAGCUCGCAGUCAAG”, the binding signal (log2 fold change) was -0.196.
Consider “GGUCACGUCUCAAUCAACUCAAUUCCAGGAGUUUGCUCCUGUAUACUCAACAGCUCGCAGUCAAG”, for which the binding signal (log2 fold change) is -0.0454.
Regarding “GGUCACGUCUCAAUCAACUCAGUCUCAGGAGUUUCCUCCUGUAUUUUCAACAGCUCGCAGUCAAG”, the binding signal (log2 fold change) is 0.0157.
“GGUCACGUCUCAAUCAACUCUCACGAGGGGGGGAAAACCCCUUUACCCUCAACCUCAACAGCUCGCAGUCAAG”: the binding signal (log2 fold change) is -0.255.
Under “GGUCACGUCUCAAUCAACUCAUAAGAGGGGGGGAAAACCCCUUUACCCUCCAUCUCAACAGCUCGCAGUCAAG” stands -0.165; under “GGUCACGUCUCAAUCAACUCAGUCUCCAGGGAAAGCCCUGGCAAAUUCAACAGCUCGCAGUCAAG”, -0.238.
“GGUCACGUCUCAAUCAACUCUAUCGAGGGGGGGAAAACCCCUUUACCCUCACCGUCAACAGCUCGCAGUCAAG”: the binding signal (log2 fold change) is -0.0904.
In the case of “GGUCACGUCUCAAUCAACUCAAUUUCCAGGGAAAUCCCUGGUUAACUCAACAGCUCGCAGUCAAG” it was -0.352; in that of “GGUCACGUCUCAAUCAACUCAUCCCCCAGGGAAAUCCCUGGCUAAUUCAACAGCUCGCAGUCAAG”, -0.158.
With “GGUCACGUCUCAAUCAACUCAGUUCCAGGAGUUUUCUCCUGCUAAUUCAACAGCUCGCAGUCAAG”, the binding signal (log2 fold change) is -0.415.
On to “GGUCACGUCUCAAUCAACUCAUCGCCCAGGGAAAUCCCUGGUAUUCUCAACAGCUCGCAGUCAAG”, for which the binding signal (log2 fold change) is -0.206.
As to “GGUCACGUCUCAAUCAACUCAUUUCCCAGGGAAAACCCUGGCUUAUUCAACAGCUCGCAGUCAAG”, the binding signal (log2 fold change) was determined as 0.0997.
In the case of “GGUCACGUCUCAAUCAACUCUUCCUCCAGGGAAAUCCCUGGUAAUUUCAACAGCUCGCAGUCAAG”, the binding signal (log2 fold change) was 0.0152.
“GGUCACGUCUCAAUCAACUCUUUCCCCAGGGAAAACCCUGGUAUAUUCAACAGCUCGCAGUCAAG”: the binding signal (log2 fold change) was -0.12.
On to “GGUCACGUCUCAAUCAACUCAUCCUCAGGAGUUUACUCCUGCUAACUCAACAGCUCGCAGUCAAG”, for which the binding signal (log2 fold change) amounted to 0.177.
As to “GGUCACGUCUCAAUCAACUCUUCUUCAGGAGUUUCCUCCUGUAUUUUCAACAGCUCGCAGUCAAG”, the binding signal (log2 fold change) was -0.126.
With “GGUCACGUCUCAAUCAACUCAUUCUCAGGAGUUUACUCCUGUAUAUUCAACAGCUCGCAGUCAAG”, the binding signal (log2 fold change) was -0.122.
For the sequence “GGUCACGUCUCAAUCAACUCUUCCUCCAGGGAAAACCCUGGUAUUCUCAACAGCUCGCAGUCAAG”, the binding signal (log2 fold change) came out at 0.106.
Turning to “GGUCACGUCUCAAUCAACUCUAUUCCCAGGGAAAUCCCUGGCUUUCUCAACAGCUCGCAGUCAAG”, the binding signal (log2 fold change) was determined as 0.0548.
